PubChem BioAssay AID1508642 (National Center for Advancing Translational Sciences (NCATS), 2021)
The whole screen tested about 43,000 compounds, of which about 200 (0.47%) were called active. Inconclusive results (about 12%) are left out. The call rests on the fitted dose curve; in most records, active means well fitted cell-killing curve with a large enough effect; inconclusive means small, poorly fitted or top-dose-only effect, or effect the other way; inactive means flat fitted curve, though single readings scatter. The list shows a part of the results.

Test: Cell viability qHTS assay in S16 Pmp22-F2sN cells; further: nearly all actives have a fitted effect of over 65% in size
Conditions: S16 Pmp22-F2sN Schwann cells (luciferase reporters placed in the Pmp22 gene) viability, CellTiter-Glo, 24 h; series mostly up to 57.5 µM; activity change, negative = cytotoxicity: at the top concentration
Method in brief: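 Luminescence from CellTiter-Glo, read by CCD camera after a 15 min room-temperature incubation, served as the viability signal. Reporter Schwann cells (S16 Pmp22-F2sN) had been treated with pin-transferred compounds for 24 h at 37C.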
On the % scale 0 is the no-effect control and ±100 the full control effect.

Row | Structure (SMILES) | activity change, negative = cytotoxicity
1 | O=C(CSc1nc2c(c(=O)[nH]1)CN(Cc1ccc3c(c1)OCO3)CC2)Nc1ccc(F)c(F)c1 | inactive: 2.58%
2 | Cc1ccc(C)c(NC(=O)Nc2cccc(-c3cn4cccnc4n3)c2)c1 | inactive: -11.2%
3 | COc1ccc(-n2nnc(-c3nc(-c4cccs4)no3)c2N)cc1 | inactive: 1.64%
4 | Cc1oc(-c2ccccc2F)nc1CSc1nnc(C)n2c1cc1occc12 | inactive: 7.46%
5 | CC(C)(C)OC(=O)N1CCC(c2c(C(=O)N3CCOCC3)cnn2-c2cccc(F)c2)CC1 | inactive: -28.3%
6 | COC(=O)c1ccccc1-n1cc2c(c1-c1cccc(C)c1)c(=O)n(C)c(=O)n2C | inactive: -1.51%
7 | O=C(Nc1ccc(F)c(Cl)c1)N1CCC(CN2CCc3ccccc3C2)CC1 | inactive: 8.38%
8 | Cc1cccc(-c2nc3ccccc3n3c(-c4ccccc4)c4c(=O)n(C)c(=O)n(C)c4c23)c1 | inactive: -1.39%
9 | Cc1cc(C)cc(N2CCn3c2nc2c3c(=O)n(CCCc3ccccc3)c(=O)n2C)c1 | inactive: 11.3%
10 | CC(C)(C)C(=O)Cn1c(=O)n(-c2ccc(Cl)c(Cl)c2)c(=O)c2c3c(sc21)CCCC3 | inactive: 8.94%
11 | CCOc1ccc(-c2noc(CSc3nnc(Cc4ccccc4)n3-c3cccc(C)c3)n2)cc1 | inactive: -23.7%
12 | Cc1ccc(-c2nc3cc(C(C)C)ccc3o2)cc1NC(=O)c1cc([N+](=O)[O-])ccc1N1CCOCC1 | inactive: -0.381%
13 | COCCCNC(=O)C1CCCN(c2nn3cc(-c4ccc(C)cc4)nc3s2)C1 (stereo not given) | inactive: -0.765%
14 | Cc1ccc(CNC(=O)CCCn2c(=O)c3ccccc3n(Cc3ccc(Cl)cc3)c2=O)cc1 | inactive: 12.9%
15 | CN(C(=O)CSc1nnc(-c2ccc([N+](=O)[O-])cc2)o1)c1ccccc1 | inactive: 17.2%
16 | Cc1ccc(CNC(=O)CCC(=O)N2CCSc3ccccc32)cc1 | inactive: 8.49%
17 | COc1ccc(CCNC(=O)Cn2cc(C(=O)c3ccc(F)cc3)c(=O)c3ccc(C)nc32)cc1OC | inactive: 18.3%
18 | CCc1ccc(NC(=O)N2CCN(C(=O)c3nsc4ccccc34)CC2)cc1 | inactive: 7.68%
19 | O=C(Nc1ccc(C(F)(F)F)cc1)N1CCC(N2CCCCC2)CC1 | inactive: 8.59%
20 | CNC(=O)C1CCN(c2nc3ccccc3nc2C(F)(F)F)CC1 | inactive: -19.2%
21 | CCCN(C(=O)Cn1cc(S(=O)(=O)N2CCN(c3ccccc3F)CC2)c2ccccc2c1=O)c1cccc(C)c1 | inactive: -8.9%
22 | CC(C)CN(CCNC(=O)c1cc(-c2ccc(Cl)s2)nc2ccccc12)CC(C)C | inactive: -1.21%
23 | COc1cccc(CNC(=O)Cn2c(C)c3cnn(-c4ccccc4)c(=O)c3c2C)c1 | inactive: 13.9%
24 | COc1cc(Cl)c(C)cc1NC(=O)c1cnc2c(-c3cccc(C)c3)c(C)nn2c1C | inactive: 0.461%
25 | Cc1ccsc1CN1CCc2nc(N3CCN(c4ccccc4F)CC3)ncc2C1 | inactive: -5.48%
